{"source": "paper PMC6919601", "about": "“Identification of Plasmodium dipeptidyl aminopeptidase allosteric inhibitors by high throughput screening” (PLoS ONE, 2019)", "note": "The whole screen tested about 110,000 compounds, of which about 230 (0.21%) showed an effect of 50% or more. The list shows a part of the results.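 Further: 30 min substrate incubation versus DMSO and 10 µM JCP410 controls.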", "data": [{"target": "DPAP1 (Plasmodium falciparum, UniProt Q8IIJ9)", "sequence (Q8IIJ9 whole entry, looked up)": "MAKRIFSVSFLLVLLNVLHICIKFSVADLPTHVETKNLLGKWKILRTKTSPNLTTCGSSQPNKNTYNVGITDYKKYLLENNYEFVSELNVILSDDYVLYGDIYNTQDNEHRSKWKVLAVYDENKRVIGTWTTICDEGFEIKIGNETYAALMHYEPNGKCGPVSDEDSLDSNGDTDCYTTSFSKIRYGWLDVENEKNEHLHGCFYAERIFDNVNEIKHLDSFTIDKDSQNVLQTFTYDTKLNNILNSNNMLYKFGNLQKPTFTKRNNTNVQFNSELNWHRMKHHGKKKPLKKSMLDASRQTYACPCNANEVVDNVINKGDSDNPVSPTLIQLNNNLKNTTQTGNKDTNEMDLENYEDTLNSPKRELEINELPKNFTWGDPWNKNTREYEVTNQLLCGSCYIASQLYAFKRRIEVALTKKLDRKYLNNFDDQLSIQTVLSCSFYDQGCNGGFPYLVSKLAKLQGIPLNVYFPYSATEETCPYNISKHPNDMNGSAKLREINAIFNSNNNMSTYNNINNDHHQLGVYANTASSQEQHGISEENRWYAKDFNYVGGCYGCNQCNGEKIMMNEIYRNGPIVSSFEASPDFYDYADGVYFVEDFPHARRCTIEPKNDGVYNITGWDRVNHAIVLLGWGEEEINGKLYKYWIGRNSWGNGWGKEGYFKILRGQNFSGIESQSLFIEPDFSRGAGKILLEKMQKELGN", "experiment": "primary screen, percent inhibition; read by cleavage of a fluorogenic dipeptide substrate; higher = more effect of the substance", "set-up": "species or system P. falciparum D10 trophozoite lysates; single well", "units": {"% Inhibition @ 10 uM": "%"}, "values": [{"smiles": "CCn1ncc(/C=N/N=C2\\CCC3C4CCc5cc(O)ccc5C4CCC23C)c1C", "note": "(stereo not drawn)", "% Inhibition @ 10 uM": 3.94}, {"smiles": "Cc1ccc(OCC(=O)N2CCc3ccccc32)cc1", "% Inhibition @ 10 uM": 2.13}, {"smiles": "Cn1c2c(c(=O)n(C)c1=O)C(c1ccc(Cl)cc1Cl)C1C(=O)c3ccccc3C1=N2", "note": "(stereo not drawn)", "% Inhibition @ 10 uM": 5.59}, {"smiles": "O=C(CCCn1c(=O)c2sccc2n(Cc2cccc(F)c2)c1=O)NCc1ccc2c(c1)OCO2", "% Inhibition @ 10 uM": 2.98}, {"smiles": "Cc1ccc(-n2ncc3c(S)ncnc32)cc1", "% Inhibition @ 10 uM": -6.6}, {"smiles": "Cc1ccc(C(C)C)c(Oc2nc3ccccn3c(=O)c2/C=C(\\C#N)C(=O)NCc2ccccc2)c1", "% Inhibition @ 10 uM": -1.43}, {"smiles": "CC1CCN(S(=O)(=O)c2ccc3c(ccn3CC(=O)NCc3ccco3)c2)CC1", "% Inhibition @ 10 uM": -0.356}, {"smiles": "COc1ccccc1OCC(=O)Nc1cc(Cl)cc(Cl)c1", "% Inhibition @ 10 uM": 0.907}, {"smiles": "CCN1CCN(C(CNC(=O)C(=O)NCc2ccco2)c2cccnc2)CC1", "note": "(stereo not drawn)", "% Inhibition @ 10 uM": -7.29}, {"smiles": "Cc1cccc(C)c1Oc1ccc(NC(=O)CCC(=O)O)cc1", "% Inhibition @ 10 uM": 7.42}, {"smiles": "CCC1CCCCN1CCNC(=O)C1CCC(CNS(=O)(=O)c2cccc3nsnc23)CC1", "note": "(stereo not drawn)", "% Inhibition @ 10 uM": 1.26}, {"smiles": "Cc1c(C(=O)N2CCN(Cc3ccccc3)CC2)sc2ncnc(N3CCC(C)CC3)c12", "% Inhibition @ 10 uM": -2.17}, {"smiles": "COc1ccc(CCC(=O)Nc2ccccn2)cc1", "% Inhibition @ 10 uM": 0.24}, {"smiles": "Cc1ccc(OCC(=O)Nc2sc(C)c(C)c2C(N)=O)cc1", "% Inhibition @ 10 uM": 1.84}, {"smiles": "CC(C)N(Cc1nc(-c2ccccc2)no1)C(=O)c1ccc(C(C)(C)C)cc1", "% Inhibition @ 10 uM": 4.38}, {"smiles": "CC1=C(C(=O)Nc2ccc(Br)cc2)C(c2ccc(Br)cc2)NC(S)=N1", "note": "(stereo not drawn)", "% Inhibition @ 10 uM": -0.603}, {"smiles": "Cc1nn(CC(=O)NCCCN2CC(C)CC(C)C2)c(=O)c2cc3cc(F)ccc3n12", "note": "(stereo not drawn)", "% Inhibition @ 10 uM": 3.09}, {"smiles": "O=c1nc2n(c(O)c1C(c1ccc(Br)cc1)c1c(O)nc3n(c1=O)CCCS3)CCCS2", "note": "(stereo not drawn)", "% Inhibition @ 10 uM": 9.94}, {"smiles": "N#Cc1c(N)nc2c(c1-c1ccc(Cl)cc1Cl)CCCC2", "% Inhibition @ 10 uM": -4.94}, {"smiles": "CCOc1cc(CNCc2c(C(=O)O)c(C)n(Cc3ccc(F)cc3)c2C)cc(OCC)c1OCC", "% Inhibition @ 10 uM": -5.49}, {"smiles": "CN1CC(=O)N=C1NC(=O)c1cnn(-c2ccccc2)c1-n1cccc1", "% Inhibition @ 10 uM": -4.27}, {"smiles": "Cc1cc(C)c(-c2c(O)c3ccccc3n(C)c2=O)c(C)c1", "% Inhibition @ 10 uM": -7.55}, {"smiles": "COc1ccccc1C(=O)N1CCCc2ccccc21", "% Inhibition @ 10 uM": 4.83}, {"smiles": "O=C(Nc1cccc2ccccc12)c1onc2c1CCCC2", "% Inhibition @ 10 uM": 0.777}, {"smiles": "O=S(=O)(NCc1ccc(CN2CCCCCC2)o1)c1ccc(-c2cc(C(F)(F)F)no2)s1", "% Inhibition @ 10 uM": 0.533}, {"smiles": "CSc1ccc(CN2CCC(O)(c3ccc(Br)cc3)CC2)cc1", "% Inhibition @ 10 uM": 4.75}, {"smiles": "CCOc1ccc2nc(NCc3ccc(F)cc3)sc2c1", "% Inhibition @ 10 uM": 1.76}, {"smiles": "Nc1c(C(=O)c2ccccc2)sc2nc3c(cc12)CCCC3", "% Inhibition @ 10 uM": 1.41}, {"smiles": "CNCCc1ccccc1Sc1ccccc1", "% Inhibition @ 10 uM": 1.4}, {"smiles": "Cc1c(C(=O)Nc2sc3c(c2C(=O)NC2CCS(=O)(=O)C2)CCCC3)oc2ccccc12", "note": "(stereo not drawn)", "% Inhibition @ 10 uM": -4.52}, {"smiles": "Cc1ccccc1-n1c(SCC(=O)NCc2ccccc2)nc2nnc(C)c-2c1N", "% Inhibition @ 10 uM": 7.3}, {"smiles": "COc1ccc(CC(C)N(C)C2CCN(C)CC2)cc1OC", "note": "(stereo not drawn)", "% Inhibition @ 10 uM": -1.5}, {"smiles": "COc1ccc(CC(=O)Nc2cc(C)ccn2)cc1OC", "% Inhibition @ 10 uM": -6.81}, {"smiles": "O=S(=O)(Nc1nc2ccccc2s1)c1ccc2ccccc2c1", "% Inhibition @ 10 uM": 5.24}, {"smiles": "COc1ccc(CCNC(=O)c2c(-c3ccccc3Cl)noc2C)cc1", "% Inhibition @ 10 uM": -7.22}, {"smiles": "CCc1ccc(-c2nc(CSCC(=O)NCCCN3CCCC3=O)c(C)o2)cc1", "% Inhibition @ 10 uM": 0.689}, {"smiles": "CCC(=O)N1CCN(c2ccc(NCc3ccccc3)cc2)CC1", "% Inhibition @ 10 uM": -16.4}, {"smiles": "Cn1nc(C(F)(F)F)cc1C(=O)Nc1ccc(S(=O)(=O)N2CCCC2)cc1", "% Inhibition @ 10 uM": -0.171}, {"smiles": "Cc1ccc(-n2nc3c(=O)n(CCCC(=O)N4CCOCC4)nc(C)c3c2C)cc1", "% Inhibition @ 10 uM": -2.87}, {"smiles": "C=CCn1c(SCC(=O)O)nc2sc3c(c2c1=O)CCCC3", "% Inhibition @ 10 uM": -1.93}, {"smiles": "Cc1cc(C)n(C(=O)CCCN2C(=O)c3cccc4cccc(c34)C2=O)n1", "% Inhibition @ 10 uM": -1.4}, {"smiles": "Cc1ccccc1-c1nc(CS(=O)(=O)CC(=O)NCCCN2CCOCC2)c(C)o1", "% Inhibition @ 10 uM": -3.7}, {"smiles": "CCNC(=O)/C(=C\\c1ccccc1)NC(=O)c1ccccc1Br", "% Inhibition @ 10 uM": -2.64}, {"smiles": "CCOP(=O)(CN1CCCCC1)OCC", "% Inhibition @ 10 uM": -3.85}, {"smiles": "Cc1ccc2ncc(NC(=O)N(C)Cc3ccccc3)c(O)c2c1", "% Inhibition @ 10 uM": -1.29}, {"smiles": "Clc1ccccc1CN1CCN(c2ncccn2)CC1", "% Inhibition @ 10 uM": 3.9}, {"smiles": "O=C(NCCCN1CCOCC1)c1[nH]c2ccccc2c1Sc1ccc(Cl)cc1", "% Inhibition @ 10 uM": -8.23}, {"smiles": "CC(C)(C)c1ccc(C(=O)NC(Cc2c(F)cccc2F)C(=O)NCC#N)cc1", "note": "(stereo not drawn)", "% Inhibition @ 10 uM": -1.41}, {"smiles": "COc1ccccc1N1CCN(C(=O)C23CC4CC(CC(C4)C2)C3)CC1", "% Inhibition @ 10 uM": -0.591}, {"smiles": "O=C(Cc1ccc(F)cc1)Nc1cccc2cccnc12", "% Inhibition @ 10 uM": 4.31}, {"smiles": "O=C(Nc1ccncc1)c1ccc(NS(=O)(=O)c2cccc(F)c2)cc1", "% Inhibition @ 10 uM": -5.26}, {"smiles": "CC(=O)c1c(C)c2c(n1CCN(C)C)CCCC2", "% Inhibition @ 10 uM": 3.54}, {"smiles": "CCCNC(=O)C(N)Cc1c[nH]c2ccccc12", "note": "(stereo not drawn)", "% Inhibition @ 10 uM": -3.21}, {"smiles": "COc1ccc(C(CC(=O)O)NC(=O)C2CCCCC2)cc1", "note": "(stereo not drawn)", "% Inhibition @ 10 uM": -1.47}, {"smiles": "CCc1ccc(CNC(=O)C2CCCN(c3nc4ccccc4o3)C2)cc1", "note": "(stereo not drawn)", "% Inhibition @ 10 uM": -3.12}, {"smiles": "CCOC(=O)c1sc2ncn3c(-c4ccco4)nnc3c2c1C", "% Inhibition @ 10 uM": -1.17}, {"smiles": "CC(C)C[C@H](NC(=O)OCc1ccc(OC(F)(F)F)cc1)C(=O)NCC#N", "% Inhibition @ 10 uM": 3.19}, {"smiles": "COCCO/C(O)=C1\\C(C)=NC2=C(C(=O)CC(c3ccc(Cl)cc3)C2)C1c1ccccc1F", "note": "(stereo not drawn)", "% Inhibition @ 10 uM": 1.67}, {"smiles": "COc1ccc(C(=O)NCC2(c3ccccc3)CCCC2)cc1", "% Inhibition @ 10 uM": -1.02}, {"smiles": "COCCCn1c(=O)c2sccc2n2c(CCCC(=O)NCCNC(C)=O)nnc12", "% Inhibition @ 10 uM": -2.15}, {"smiles": "N#CCNC(=O)[C@H](Cc1cc(I)c(O)c(I)c1)NC(=O)N1CCOCC1", "% Inhibition @ 10 uM": -6.46}, {"smiles": "O=C(NCC12CC3CC(CC(C3)C1)C2)c1cc(-c2ccc(F)cc2)no1", "% Inhibition @ 10 uM": -2.07}, {"smiles": "Cc1cccc2c3nn4cn[nH]c4nc-3nc12", "% Inhibition @ 10 uM": -6.44}]}]}
